# The list shows a part of the results.
# Columns and labels:
# Experiment in all cases: glycan array binding signal (z-score within array); higher = stronger binding
# Details in all cases: glycan notation: IUPAC condensed, linker removed
# [1] = molecular target: Neu5Ac(a2-6)Gal(b1-4)GlcNAc(b1-3)Gal(b1-4)GlcNAc(b1-3)GalNAc
# Procedure, shortened: (§1)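 From the Consortium for Functional Glycomics database, 3228 arrays were curated, keeping only those whose protein sequence was available. Binding is given as a within-array Z-score averaged across arrays sharing a protein sequence and across linkers. Negative Z-scores can be read as non-binding.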
# [2] = molecular target: Neu5Ac(a2-6)Gal(b1-4)GlcNAc(b1-3)Gal(b1-4)GlcNAc(b1-3)[Neu5Ac(a2-6)Gal(b1-4)GlcNAc(b1-3)Gal(b1-4)GlcNAc(b1-6)]GalNAc
# Procedure, shortened: as §1
# [3] = molecular target: Neu5Ac(a2-6)Gal(b1-4)GlcNAc(b1-3)Gal(b1-4)GlcNAc(b1-6)[Gal(b1-3)]GalNAc
# Procedure, shortened: as §1
# [4] = molecular target: Neu5Ac(a2-6)Gal(b1-4)GlcNAc(b1-3)Gal(b1-4)[Fuc(a1-3)]GlcNAc(b1-3)Gal(b1-4)[Fuc(a1-3)]GlcNAc
# Procedure, shortened: as §1
# [5] = molecular target: Neu5Ac(a2-6)Gal(b1-4)GlcNAc(b1-3)GalNAc
# Procedure, shortened: as §1
# [6] = molecular target: Neu5Ac(a2-6)Gal(b1-4)GlcNAc(b1-3)[Neu5Ac(a2-6)Gal(b1-4)GlcNAc(b1-6)]GalNAc
# Procedure, shortened: as §1
# [7] = molecular target: Neu5Ac(a2-6)Gal(b1-4)GlcNAc(b1-6)GalNAc
# Procedure, shortened: as §1
# [8] = molecular target: Neu5Ac(a2-6)Gal(b1-4)GlcNAc(b1-6)[Gal(b1-3)GlcNAc(b1-3)]Gal(b1-4)Glc
# Procedure, shortened: as §1
# [9] = molecular target: Neu5Ac(a2-6)Gal(b1-4)GlcNAc(b1-6)[Gal(b1-3)]GalNAc
# Procedure, shortened: as §1
# [10] = molecular target: Neu5Ac(a2-6)Gal(b1-4)GlcNAc6S
# Procedure, shortened: as §1
# Neu5Ac(a2-6)GalNAc = molecular target: Neu5Ac(a2-6)GalNAc
# Procedure, shortened: as §1
# [11] = molecular target: Neu5Ac(a2-6)GalNAc(b1-4)GlcNAc
# Procedure, shortened: as §1
# [12] = molecular target: Neu5Ac(a2-6)GalNAc(b1-4)GlcNAc6S
# Procedure, shortened: as §1
# [13] = molecular target: Neu5Ac(a2-6)GlcNAc(b1-4)GlcNAc
# Procedure, shortened: as §1
# [14] = molecular target: Neu5Ac(a2-6)GlcNAc(b1-4)GlcNAc(b1-4)GlcNAc
# Procedure, shortened: as §1
# Neu5Ac(a2-8)Neu5Ac = molecular target: Neu5Ac(a2-8)Neu5Ac
# Procedure, shortened: as §1
# [15] = molecular target: Neu5Ac(a2-8)Neu5Ac(a2-3)Gal(b1-3)GalNAc(b1-4)[Neu5Ac(a2-3)]Gal(b1-4)Glc
# Procedure, shortened: as §1
# [16] = molecular target: Neu5Ac(a2-8)Neu5Ac(a2-3)Gal(b1-3)GalNAc(b1-4)[Neu5Ac(a2-8)Neu5Ac(a2-3)]Gal(b1-4)Glc
# Procedure, shortened: as §1
# [17] = molecular target: Neu5Ac(a2-8)Neu5Ac(a2-3)Gal(b1-4)Glc
# Procedure, shortened: as §1
# [18] = molecular target: Neu5Ac(a2-8)Neu5Ac(a2-3)Gal(b1-4)GlcNAc
# Procedure, shortened: as §1
# [19] = molecular target: Neu5Ac(a2-8)Neu5Ac(a2-3)[Gal(b1-3)GalNAc(b1-4)]Gal(b1-4)Glc
# Procedure, shortened: as §1
# [20] = molecular target: Neu5Ac(a2-8)Neu5Ac(a2-3)[GalNAc(b1-4)]Gal(b1-4)Glc
# Procedure, shortened: as §1
# [21] = molecular target: Neu5Ac(a2-8)Neu5Ac(a2-8)Neu5Ac
# Procedure, shortened: as §1
# [22] = molecular target: Neu5Ac(a2-8)Neu5Ac(a2-8)Neu5Ac(a2-3)Gal(b1-4)Glc
# Procedure, shortened: as §1
# [23] = molecular target: Neu5Ac(a2-8)Neu5Ac(a2-8)Neu5Ac(a2-3)[Gal(b1-3)GalNAc(b1-4)]Gal(b1-4)Glc
# Procedure, shortened: as §1
# [24] = molecular target: Neu5Ac(a2-8)Neu5Ac(a2-8)Neu5Ac(a2-3)[GalNAc(b1-4)]Gal(b1-4)Glc
# Procedure, shortened: as §1
# [25] = molecular target: Neu5Ac(a2-8)Neu5Ac(a2-8)Neu5Ac(a2-8)Neu5Ac(a2-3)[GalNAc(b1-4)]Gal(b1-4)Glc
# Procedure, shortened: as §1
# [26] = molecular target: Neu5Ac(a2-8)Neu5Gc(a2-3)Gal(b1-4)GlcNAc
# Procedure, shortened: as §1
# [27] = molecular target: Neu5Ac(b2-6)Gal(b1-4)GlcNAc
# Procedure, shortened: as §1
# Neu5Ac(b2-6)GalNAc = molecular target: Neu5Ac(b2-6)GalNAc
# Procedure, shortened: as §1
# [28] = molecular target: Neu5Ac9Ac(a2-3)Gal(b1-3)GlcNAc
# Procedure, shortened: as §1
# [29] = molecular target: Neu5Ac9Ac(a2-3)Gal(b1-4)GlcNAc
# Procedure, shortened: as §1
# [30] = molecular target: Neu5Ac9Ac(a2-6)Gal(b1-4)GlcNAc
# Procedure, shortened: as §1
# [31] = molecular target: Neu5Gc(a2-3)Gal(b1-3)GlcNAc
# Procedure, shortened: as §1
# [32] = molecular target: Neu5Gc(a2-3)Gal(b1-3)[Fuc(a1-4)]GlcNAc
# Procedure, shortened: as §1
# Neu5Gc(a2-3)Gal(b1-4)Glc = molecular target: Neu5Gc(a2-3)Gal(b1-4)Glc
# Procedure, shortened: as §1
# [33] = molecular target: Neu5Gc(a2-3)Gal(b1-4)GlcNAc
# Procedure, shortened: as §1
# [34] = molecular target: Neu5Gc(a2-3)Gal(b1-4)GlcNAc(b1-3)Gal(b1-4)GlcNAc(b1-2)Man(a1-3)[Neu5Gc(a2-3)Gal(b1-4)GlcNAc(b1-3)Gal(b1-4)GlcNAc(b1-2)Man(a1-6)]Man(b1-4)GlcNAc(b1-4)GlcNAc
# Procedure, shortened: as §1
# [35] = molecular target: Neu5Gc(a2-3)Gal(b1-4)[Fuc(a1-3)]GlcNAc
# Procedure, shortened: as §1
# [36] = molecular target: Neu5Gc(a2-6)Gal(b1-4)GlcNAc
# Procedure, shortened: as §1
# Neu5Gc(a2-6)GalNAc = molecular target: Neu5Gc(a2-6)GalNAc
# Procedure, shortened: as §1
# [37] = molecular target: Neu5Gc(a2-8)Neu5Ac(a2-3)Gal(b1-4)GlcNAc
# Procedure, shortened: as §1
# [38] = molecular target: Neu5Gc(a2-8)Neu5Gc(a2-3)Gal(b1-4)GlcNAc
# Procedure, shortened: as §1
# [39] = molecular target: Neu5Gc(a2-8)Neu5Gc(a2-3)Gal(b1-4)GlcNAc(b1-3)Gal(b1-4)GlcNAc
# Procedure, shortened: as §1
# [40] = molecular target: Neu5Gc(a2-8)Neu5Gc(a2-6)Gal(b1-4)GlcNAc
# Procedure, shortened: as §1
# [41] = molecular target: Neu5Gc(b2-6)Gal(b1-4)GlcNAc
# Procedure, shortened: as §1
binder,measurement,setting,value
Cohesin-hMARCO (Homo sapiens) (protein) LDDLDAVRIKVDTVNAKPGDTVRIPVRFSGIPSKGIANCDFVYSYDPNVLEIIEIEPGDIIVDPNPDKSFDTAVYPDRKIIVFLFAEDSGTGAYAITKDGVFATIVAKVKEGAPNGLSVIKFVEVGGFANNDLVEQKTQFFDGGANVGDTTEPATPTTPVTTPTTTDDLDAASVRIVGSSNRGRAEVYYSGTWGTICDDEWQNSDAIVFCRMLGYSKGRALYKVGAGTGQIWLDNVQCRGTESTLWSCTKNSWGHHDCSHEEDAGVECSVHHHHHH,glycan array binding signal (z-score),[1],-0.2
same,glycan array binding signal (z-score),[2],-0.49
same,glycan array binding signal (z-score),[3],-0.395
same,glycan array binding signal (z-score),[4],-0.435
same,glycan array binding signal (z-score),[5],-0.019
same,glycan array binding signal (z-score),[6],-0.384
same,glycan array binding signal (z-score),[7],-0.495
same,glycan array binding signal (z-score),[8],-0.058
same,glycan array binding signal (z-score),[9],-0.023
same,glycan array binding signal (z-score),[10],-0.173
same,glycan array binding signal (z-score),Neu5Ac(a2-6)GalNAc,0.214
same,glycan array binding signal (z-score),[11],-0.223
same,glycan array binding signal (z-score),[12],-0.503
same,glycan array binding signal (z-score),[13],-0.302
same,glycan array binding signal (z-score),[14],-0.396
same,glycan array binding signal (z-score),Neu5Ac(a2-8)Neu5Ac,-0.288
same,glycan array binding signal (z-score),[15],0.082
same,glycan array binding signal (z-score),[16],-0.482
same,glycan array binding signal (z-score),[17],-0.452
same,glycan array binding signal (z-score),[18],-0.083
same,glycan array binding signal (z-score),[19],-0.35
same,glycan array binding signal (z-score),[20],-0.001
same,glycan array binding signal (z-score),[21],-0.517
same,glycan array binding signal (z-score),[22],-0.365
same,glycan array binding signal (z-score),[23],-0.494
same,glycan array binding signal (z-score),[24],-0.172
same,glycan array binding signal (z-score),[25],0.16
same,glycan array binding signal (z-score),[26],-0.15
same,glycan array binding signal (z-score),[27],-0.139
same,glycan array binding signal (z-score),Neu5Ac(b2-6)GalNAc,-0.413
same,glycan array binding signal (z-score),[28],4.33
same,glycan array binding signal (z-score),[29],-0.53
same,glycan array binding signal (z-score),[30],-0.071
same,glycan array binding signal (z-score),[31],-0.086
same,glycan array binding signal (z-score),[32],0.113
same,glycan array binding signal (z-score),Neu5Gc(a2-3)Gal(b1-4)Glc,-0.403
same,glycan array binding signal (z-score),[33],0.228
same,glycan array binding signal (z-score),[34],0.016
same,glycan array binding signal (z-score),[35],-0.396
same,glycan array binding signal (z-score),[36],-0.212
same,glycan array binding signal (z-score),Neu5Gc(a2-6)GalNAc,0.543
same,glycan array binding signal (z-score),[37],-0.309
same,glycan array binding signal (z-score),[38],-0.422
same,glycan array binding signal (z-score),[39],0.265
same,glycan array binding signal (z-score),[40],-0.21
same,glycan array binding signal (z-score),[41],-0.376

# Source: the supplement of paper PMC8728848
